Data taken from a collection of fitness landscapes (doi:10.1126/science.1257360).
The other results are listed elsewhere or left out.

B1: PhoQ; a variant is named by its letters at X, in order, P23837 (parent)
chain: MKKLLRLFFPLSLRVRFLLATAAVVLVLSLAYGMVALIGYSVSFDKTTFRLLRGESNLFYTLAKWENNKLHVELPENIDKQSPTMTLIYDENGQLLWAQRDVPWLMKMIQPDWLKSNGFHEIEADVNDTSLLLSGDHSIQQQLQEVREDDDDAEMTHSVAVNVYPATSRMPKLTIVVVDTIPVELKSSYMVWSWFIYVLSANLLLVIPLLWVAAWWSLRPIEALAKEVRELEEHNRELLNPATTRELTSLVRNLNRLLKSERERYDKYRTTLTDLTHSLKTPLXXLQXXLRSLRSEKMSVSDAEPVMLEQISRISQQIGYYLHRASMRGGTLLSRELHPVAPLLDNLTSALNKVYQRKGVNISLDISPEISFVGEQNDFVEVMGNVLDNACKYCLEFVEISARQTDEHLYIVVEDDGPGIPLSKREVIFDRGQRVDTLRPGQGVGLAVAREITEQYEGKIVAGESMLGGARMEVIFGRQHSAPKDE

Variants of: B1
Experiment: enrichment ratio after two sorts for PhoP signalling (ratio (wild type AVST 3.29)); higher = more functional
Settings: with PhoP (E. coli)

Variant | enrichment ratio
YPPK | ≤ 0.25
EMIP | ≤ 0.25
HQKH | ≤ 0.25
QVLM | ≤ 0.25
YLKS | ≤ 0.25
RMYN | ≤ 0.25
FMFN | ≤ 0.25
TFRS | ≤ 0.25
RSDR | ≤ 0.25
FECT | 5.14
GIMS | 0.324
IHYK | ≤ 0.25
DYRT | ≤ 0.25
KICR | ≤ 0.25
WTVA | ≤ 0.25
QKCI | ≤ 0.25
PTDL | ≤ 0.25
ATPV | 6.48
GGID | ≤ 0.25
ICYL | ≤ 0.25
RHTF | ≤ 0.25
IRFK | ≤ 0.25
ANDS | ≤ 0.25
YCAG | ≤ 0.25
WDYT | ≤ 0.25

Variant | enrichment ratio
HNGW | ≤ 0.25
AERI | ≤ 0.25
FEFT | ≤ 0.25
SAQA | ≤ 0.25
RLAL | ≤ 0.25
MWMR | ≤ 0.25
KVVV | ≤ 0.25
QEQD | ≤ 0.25
ECLD | ≤ 0.25
QDQL | ≤ 0.25
MLSQ | ≤ 0.25
MYFW | ≤ 0.25
RYKH | ≤ 0.25
AIMH | 4.85
SIHR | ≤ 0.25
FQTH | ≤ 0.25
SAPY | ≤ 0.25
EYPN | ≤ 0.25
IRNA | ≤ 0.25
RMQK | ≤ 0.25
PTWG | ≤ 0.25
NDYY | ≤ 0.25
YCKC | ≤ 0.25
KPVR | ≤ 0.25
GWVS | ≤ 0.25

Variant | enrichment ratio
INYC | ≤ 0.25
MFAC | ≤ 0.25
TTGG | 4.26
YYQL | ≤ 0.25
SADY | ≤ 0.25
HEIH | ≤ 0.25
VSQS | ≤ 0.25
GFGM | 1.75
RTGM | ≤ 0.25
YDYH | ≤ 0.25
TPGQ | 16
YVSN | 0.299
GPYP | ≤ 0.25
IFGN | ≤ 0.25
EGHR | ≤ 0.25
NMWI | ≤ 0.25
VYCS | ≤ 0.25
YFTI | ≤ 0.25
ITIS | ≤ 0.25
KGDN | ≤ 0.25
MWTF | ≤ 0.25
VDNY | ≤ 0.25
NKYW | ≤ 0.25
NKRK | ≤ 0.25
LPQY | ≤ 0.25

Variant | enrichment ratio
DKWS | ≤ 0.25
GSMK | ≤ 0.25
PLSH | ≤ 0.25
LFHL | ≤ 0.25
VNVW | ≤ 0.25
DDVP | ≤ 0.25
ITNH | ≤ 0.25
PNTN | ≤ 0.25
QWYI | ≤ 0.25
SWPK | ≤ 0.25
LARI | ≤ 0.25
AIWV | ≤ 0.25
IMFL | ≤ 0.25
ENHQ | ≤ 0.25
KDTN | ≤ 0.25
ACLF | 4.54
YQSL | ≤ 0.25
KCIG | ≤ 0.25
FCIF | ≤ 0.25
HYAG | ≤ 0.25
SYME | ≤ 0.25
PDFL | ≤ 0.25
PNLP | ≤ 0.25
EVFC | ≤ 0.25
QPLV | ≤ 0.25

Variant | enrichment ratio
RCWI | ≤ 0.25
WGRY | ≤ 0.25
WPKN | ≤ 0.25
KRHQ | ≤ 0.25
RDSC | ≤ 0.25
NDER | ≤ 0.25
WDCC | ≤ 0.25
SMWA | ≤ 0.25
MLCC | ≤ 0.25
MEFT | 1.13
AQAV | 5.37
KRCF | ≤ 0.25
YSSW | ≤ 0.25
ICYK | ≤ 0.25
TMTI | 9.69
LMEI | ≤ 0.25
SAMD | ≤ 0.25
DPQM | ≤ 0.25
DVAV | ≤ 0.25
LFSM | ≤ 0.25
EYDQ | ≤ 0.25
YDWG | ≤ 0.25
VTAY | ≤ 0.25
METS | 6.13
DFCI | ≤ 0.25

Variant | enrichment ratio
WEQH | ≤ 0.25
IPRF | ≤ 0.25
PHAP | ≤ 0.25
PNCT | ≤ 0.25
KPIM | ≤ 0.25
LEKC | ≤ 0.25
PNEL | ≤ 0.25
MCLE | 0.98
FFYK | 0.359
YRSR | ≤ 0.25
YYND | ≤ 0.25
PMDN | ≤ 0.25
QIPK | ≤ 0.25
FMKL | ≤ 0.25
PQYD | ≤ 0.25
ICDC | ≤ 0.25
QAHR | ≤ 0.25
FPYY | ≤ 0.25
TYLL | 3.01
YICG | 1.07
FICK | ≤ 0.25
AMGY | 0.284
GPVM | ≤ 0.25
MGHS | ≤ 0.25
SQEH | ≤ 0.25

Variant | enrichment ratio
IRST | ≤ 0.25
VRST | ≤ 0.25
KYEH | ≤ 0.25
HIKR | ≤ 0.25
EDYG | ≤ 0.25
YMRH | ≤ 0.25
ISRG | ≤ 0.25
AVSV | 7.85
IIRL | ≤ 0.25
KSHH | ≤ 0.25
SCLY | 5.98
NRIV | ≤ 0.25
YHAN | ≤ 0.25
MCNW | ≤ 0.25
NSCQ | ≤ 0.25
HDHF | ≤ 0.25
WPCD | ≤ 0.25
VACT | ≤ 0.25
FRDM | ≤ 0.25
VKRG | ≤ 0.25
MGLG | 6.1
YIGI | 0.304
SNNI | 7.72
MKRH | ≤ 0.25
TFCT | ≤ 0.25

Variant | enrichment ratio
FCYQ | ≤ 0.25
EIMP | ≤ 0.25
DIGR | ≤ 0.25
RSKK | ≤ 0.25
MDPT | ≤ 0.25
GCPC | ≤ 0.25
MDWP | ≤ 0.25
IGSF | ≤ 0.25
NPRM | ≤ 0.25
KKNM | ≤ 0.25
QRLY | ≤ 0.25
EISC | ≤ 0.25
EQYG | ≤ 0.25
MSEI | ≤ 0.25
AHRN | ≤ 0.25
VKQT | ≤ 0.25
TCSQ | 10.7
WGFC | ≤ 0.25
NYTH | ≤ 0.25
PIKG | ≤ 0.25
